From PubChem BioAssay AID1645886 (National Center for Advancing Translational Sciences (NCATS), 2021)
Where “and” joins values, the source holds several entries; their conditions need not be identical. Equal entries are not always repeated. Screen size: about 16,000 compounds; about 260 (1.6%) were called active. The inconclusive results got no clear call from the source; some entries with a clear call stand among them for comparison. Calls come from the whole dose curve; as a rule, active = well fitted inhibition curve with a large enough effect; inconclusive = small, poorly fitted or top-dose-only effect; inactive = no such curve, though single readings can be large or run the other way. A potency beside an inconclusive call is a rough fit, not a confirmed value.

These compounds were tested against Rap guanine nucleotide exchange factor 4 (Homo sapiens) (UniProt Q8WZA2) (assay: Validation qHTS for antagonist of cAMP-regulated guanine nucleotide exchange factor 4 (EPAC2)). Settings: EPAC2 Rap1B BODIPY-GDP exchange, fluorescence; activity, negative = inhibition: at 112 µM (top of the series).
Chain of UniProt Q8WZA2 (Q8WZA2 whole entry, looked up): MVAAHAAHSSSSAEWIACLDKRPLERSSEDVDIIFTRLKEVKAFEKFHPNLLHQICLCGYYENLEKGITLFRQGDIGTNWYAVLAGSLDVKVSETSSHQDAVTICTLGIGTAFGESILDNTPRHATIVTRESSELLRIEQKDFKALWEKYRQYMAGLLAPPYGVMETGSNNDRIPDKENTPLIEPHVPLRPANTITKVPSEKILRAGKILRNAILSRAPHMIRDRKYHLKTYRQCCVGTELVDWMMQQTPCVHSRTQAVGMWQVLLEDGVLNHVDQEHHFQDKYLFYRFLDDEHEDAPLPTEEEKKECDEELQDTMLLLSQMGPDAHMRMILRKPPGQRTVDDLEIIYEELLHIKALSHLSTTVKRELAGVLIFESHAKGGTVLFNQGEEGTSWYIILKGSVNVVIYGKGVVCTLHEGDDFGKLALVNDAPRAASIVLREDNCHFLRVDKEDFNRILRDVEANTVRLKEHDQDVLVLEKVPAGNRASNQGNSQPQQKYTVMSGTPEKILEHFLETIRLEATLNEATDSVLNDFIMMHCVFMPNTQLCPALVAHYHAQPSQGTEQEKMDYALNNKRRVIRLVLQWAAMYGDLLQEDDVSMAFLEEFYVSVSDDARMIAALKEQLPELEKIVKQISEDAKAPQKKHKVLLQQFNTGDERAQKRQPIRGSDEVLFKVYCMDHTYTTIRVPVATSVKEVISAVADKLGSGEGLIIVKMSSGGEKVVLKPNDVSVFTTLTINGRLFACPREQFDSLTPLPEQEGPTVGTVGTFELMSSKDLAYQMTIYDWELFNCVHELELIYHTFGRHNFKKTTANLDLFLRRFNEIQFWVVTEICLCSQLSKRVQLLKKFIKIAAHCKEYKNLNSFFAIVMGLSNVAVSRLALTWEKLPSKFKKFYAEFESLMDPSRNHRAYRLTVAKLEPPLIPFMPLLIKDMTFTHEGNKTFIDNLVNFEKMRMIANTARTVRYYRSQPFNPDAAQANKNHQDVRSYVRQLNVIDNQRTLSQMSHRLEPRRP
Outline: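 Fluorescent exchange read-out: 100 nM EPAC2 with 250 nM RAP1B–BODIPY-GDP and 50 uM GDP; BODIPY-GDP release lowers fluorescence. Read at 480/540 nm every 5 min for 30 min at room temperature; normalized to 6.5 mM cAMP.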
Note: nearly all actives have a fitted effect of over 40% in size.
Potency is the fitted concentration of half-maximal effect; tags give direction and shape of the fitted curve.
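Throughout, for activity, negative = inhibition: 100% = activation by cAMP agonist control.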

SMILES	Potency	activity, negative = inhibition
CCOC(=O)C1=CC2(CC)CCCN3CCc4c(n1c1ccccc41)C32 (stereo unspecified)	inconclusive: 100 µM [inhibitor, partial curve, poor fit]	–
COc1ccccc1C1CN(CCNC(=O)c2cnsn2)Cc2ccccc2O1 (stereo unspecified)	–	inactive: -20.6%
COc1ccc2[nH]c(-c3ccccc3)c(CCNC(C)=O)c2c1	inconclusive: 50.1 µM [inhibitor, partial curve]	–
Cc1cc(-c2ccnc(-n3ncc(C(=O)N(C)Cc4nccs4)c3C)n2)c(C)s1	inconclusive: 89.1 µM [inhibitor, single point]	–
COc1cc(-c2coc3cc(O[C@H]4OC(CO)C(O)C(O)C4O)c(OC)c(O)c3c2=O)cc(O)c1OC (stereo partly specified)	–	inactive: -6.7%
O=C1CCN(Cc2ccccc2)S(=O)(=O)c2ccc(C(F)(F)F)cc21	inconclusive: 79.4 µM [inhibitor, single point]	–
CCOC(=O)[C@H](CCc1ccccc1)N[C@@H](C)C(=O)N(CC(=O)O)C1Cc2ccccc2C1	inconclusive: 0.794 µM [inhibitor, full curve, poor fit]	–
O=C(C[C@H]1C(=O)N(CCc2ccccc2)C[C@@H]1Cc1ccccc1)Nc1ccccc1	inconclusive: 5.62 µM [inhibitor, full curve, poor fit]	–
O=C(c1cccc(F)c1)N1CCC2(CC1)CN(C(c1ccccc1)c1ccccc1)C2	inconclusive: 39.8 µM [inhibitor, full curve, poor fit]	–
N[C@H](C(=O)O)[C@@H]1CC(Cl)=NO1	–	inactive: 33.4%
COc1cc(N(C)C)c(OC)cc1C=O	inconclusive: 56.2 µM [inhibitor, partial curve, poor fit]	–
Cc1cnc(CNc2ncnc3ccc(-c4ccccc4C)cc23)cn1	inconclusive: 56.2 µM [inhibitor, partial curve, poor fit]	–
CC1(c2ccccc2)OC(C(=O)O)=CC1=O (stereo unspecified)	inconclusive: 100 µM [inhibitor, partial curve, poor fit]	–
COc1ccc(/C=c2\[nH]c(=O)/c(=C/c3ccc(OC)cc3)[nH]c2=O)cc1	inconclusive: 39.8 µM [inhibitor, partial curve]	–
C/C=C/CC(C)C(O)C1C(=O)NC(CC)C(=O)N(C)CC(=O)N(C)C(CC(C)C)C(=O)NC(C(C)C)C(=O)N(C)C(CC(C)C)C(=O)NC(C)C(=O)NC(C)C(=O)N(C)C(CC(C)C)C(=O)N(C)C(CC(C)C)C(=O)N(C)C(C(C)C)C(=O)N1C (stereo unspecified)	inconclusive: 14.1 µM [inhibitor, partial curve] and inconclusive: 22.4 µM [inhibitor, partial curve, poor fit] and inconclusive: 56.2 µM [inhibitor, partial curve]	–
CCCCCCCCCCCCCCCC(=O)OCC(COP(=O)(O)O)OC(=O)CCCCCCCCCCCCCCC (stereo unspecified)	–	inactive: -4% [at 11.4 µM]
COc1cccc(Cn2c(=O)c(C)nc3cnc(Oc4ccccc4)nc32)c1	inconclusive: 4.47 µM [inhibitor, full curve, poor fit]	–
CC[C@H](C)C(=O)O[C@H]1C[C@@H](C)C=C2C=C[C@H](C)[C@H](CC[C@@H]3C[C@@H](O)CC(=O)O3)[C@H]21	inconclusive: 50.1 µM [inhibitor, partial curve, poor fit]	–

SMILES	Potency	activity, negative = inhibition
COc1ccc(F)c(CN2CCOc3ccc(CN4CCCCC4CO)cc3C2)c1 (stereo unspecified)	inconclusive: 50.1 µM [inhibitor, partial curve, poor fit]	–
O=C(Oc1ccccc1)N1CCC2(CCCN(c3ccccc3)C2)CC1	inconclusive: 11.2 µM [inhibitor, full curve, poor fit]	–
CN(Cc1ccco1)c1ccnc(-c2cccc(C#N)c2)n1	inconclusive: 63.1 µM [inhibitor, partial curve, poor fit]	–
COc1ccc(CNc2ncncc2-c2ccoc2)c(OC)c1	inconclusive: 44.7 µM [inhibitor, partial curve, poor fit]	–
COc1cc(-c2cccc(OC)c2OC)cc2c1OCCN(Cc1cn[nH]c1-c1ccc(Cl)cc1)C2	inconclusive: 11.2 µM [inhibitor, full curve]	–
COc1ccc(C(=O)NCc2nc(-c3cccc(NC(=O)c4ccc(C)s4)c3)oc2C)cc1	–	inactive: -0.675%
COc1ccc(-c2nc3cc(C)ccc3cc2CN(C(=O)c2cccs2)C2CC2)cc1OC	inconclusive: 7.94 µM [inhibitor, full curve]	–
COc1ccccc1C(=O)N(Cc1cc2cc3c(cc2nc1N(C)C)OCO3)CC1CCCO1 (stereo unspecified)	inconclusive: 10 µM [inhibitor, full curve, poor fit]	–
Cc1c(CCO)sc[n+]1CCc1ccccc1	inconclusive: 10 µM [inhibitor, single point]	–
CS(=O)(=O)N1CCC[C@@]2(CCN(c3ccccn3)C2)C1	–	inactive: -17.1%
O=C(Nc1cccc(F)c1)N1CCC2(CC1)CCN(S(=O)(=O)c1ccccc1)CC2	–	inactive: -22%
O=c1[nH]c2cc(C(F)(F)F)ccc2n1-c1cc(C(F)(F)F)ccc1O	inconclusive: 56.2 µM [inhibitor, partial curve, poor fit]	–
COC(=O)C[C@H]1c2cc(F)ccc2S(=O)(=O)N1c1ccccc1	inconclusive: 89.1 µM [inhibitor, single point]	–
CC(C)(C)[C@@H]1CCC(=O)N(CC[C@H](Sc2ccccc2)c2ccccc2)CC1	inconclusive: 100 µM [inhibitor, partial curve, poor fit]	–
NC[C@@H](O)c1ccc(O)c(O)c1	inconclusive: 63.1 µM [inhibitor, partial curve, poor fit]	–
CCN1CCN(C(=O)NC(C(=O)NC2C(=O)N3C2SC(C)(C)C3C(=O)O)c2ccccc2)C(=O)C1=O (stereo unspecified)	–	inactive: 0.41%
Cc1ccc(C(=O)Nc2cnn(-c3ccc(C(=O)NCc4nc(-c5ccccc5)n[nH]4)cc3)c2)c(C)c1	inconclusive: 3.98 µM [inhibitor, full curve, poor fit]	–
Cc1ccccc1-c1cc2c(c(OC3CCOC3)c1)OCCN(C(=O)Cn1cccn1)C2 (stereo unspecified)	inconclusive: 11.2 µM [inhibitor, full curve, poor fit]	–
